Results from patent publication US20240400670A1 (JIANGSU HENGRUI PHARMACEUTICALS, published 2024).

T1: human APRIL (R&D Systems, 5860-AP-010/CF) (human, UniProt O75888 105-250, limits assumed)
T1 construct: the B cell assay names 'R&D Systems, 5860-AP'; also called APRIL protein
T1 sequence (looked up): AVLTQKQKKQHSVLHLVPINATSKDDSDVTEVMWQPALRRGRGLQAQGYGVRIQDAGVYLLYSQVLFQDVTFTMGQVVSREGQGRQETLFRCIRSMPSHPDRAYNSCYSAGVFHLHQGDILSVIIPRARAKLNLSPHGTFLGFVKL


Target: T1, human APRIL (R&D Systems, …)
Assay: competition ELISA, blocks APRIL/TACI; TACI coated, biotin-APRIL
Method: The specific procedures are as follows:
The receptor protein was diluted to 2 μg/mL with a PBS (BasalMedia, B320) buffer at pH 7.4 and added to a 96-well microplate (Corning, 3590) at 100 μL/well. The plate was incubated at 4° C. overnight. After the liquid was discarded, 1 % Casein blocking solution (Thermo, 37528) was added at 200 μL/well for blocking, and the plate was incubated at 37° C. for 2 h. After the blocking was complete, the blocking solution was discarded, and the plate was washed 3 times with a PBST buffer (pH 7.4 PBS containing 0.1 % tween-20) for later use. After the biotin-labeled ligand protein at a fixed concentration was mixed with an antibody or fusion protein diluted in a gradient, the mixture was pre-incubated at 37° C. for 30 min and then added to the blocked microplate. The plate was incubated at 37° C. for 1.5 h. After the incubation was complete, the plate was washed 3 times with PBST. Streptavidin-HRP (Invitrogen, 434323, diluted at 1:4000) was added at 100 μL/well, and the plate was incubated at 37° C. for 1 h. The supernatant was removed. […] The absorbance values at 450 nm were taken using a microplate reader. Curves for the inhibition of binding of the ligands to the receptors were fitted using software, and the IC₅₀ values were calculated.

| IC50 | Binder |
| --- | --- |
| 2.1 nM | Hu29-19T (other, anti-IL23 IgG1 with a TACI polypeptide at the N- and the C-terminus of each heavy chain; also called anti-IL23 antibody fusion protein) heavy: STSCREEQGEFYDHLLRDCISCASICGQHPKQCAAFCEGGGGSGGGGSGGGGSQVTLKESGPVLVKPTETLTLTCTVSGFSLTNYAISWVRQPPGKGLEWLGVIWTGGGTNYNSGIKSRLTISKDNSKSQVVLTMTNMDPVDTARYYCVREGDYGSYAGAMDYWGQGTTVTVSSASTKGPSVFPLAPSSKSTSGGTAALGCLVKDYFPEPVTVSWNSGALTSGVHTFPAVLQSSGLYSLSSVVTVPSSSLGTQTYICNVNHKPSNTKVDKKV[here human IgG1 Fc with changes without letters]GGGSSTSCREEQGEFYDHLLRDCISCASICGQHPKQCAAFCESS light: DIVLTQSPDSLAVSLGERATINCRASESVDYYGISSMHWFQQKPGQPPKLLIYRASNLESGIPARFSGSGSRTDFTLTISSLQAEDVAVYYCQQANKDPYTFGGGTKVEIKRTVAAPSVFIFPPSDEQLKSGTASVVCLLNNFYPREAKVQWKVDNALQSGNSQESVTEQDSKDSTYSLSSTLTLSKADYEKHKVYACEVTHQGLSSPVTKSFNRGEC |
| 1.39 nM | Hu29-24T (other, anti-IL23 IgG1 with a TACI polypeptide at the N- and the C-terminus of each heavy chain; also called anti-IL23 antibody fusion protein) heavy: STSCREEQGEFYDHLLRDCISCASICGQHPKQCAAFCEGGGGSGGGGSGGGGSQVTLKESGPVLVKPTETLTLTCTVSGFSLTQYAISWVRQPPGKGLEWLGVIWTGGGTNYNSGIKSRLTISKDNSKSQVVLTMTNMDPVDTARYYCVREGDYGSYAGAMDYWGQGTTVTVSSASTKGPSVFPLAPSSKSTSGGTAALGCLVKDYFPEPVTVSWNSGALTSGVHTFPAVLQSSGLYSLSSVVTVPSSSLGTQTYICNVNHKPSNTKVDKKV[here human IgG1 Fc with changes without letters]GGGSSTSCREEQGEFYDHLLRDCISCASICGQHPKQCAAFCESS light: DIVLTQSPDSLAVSLGQRATINCRASESVDYYGISSMHWFQQKPGQPPKLLIYRASNLESGIPARFSGSGSRTDFTLTISSLQAEDVAVYYCQQANKDPYTFGGGTKVEIKRTVAAPSVFIFPPSDEQLKSGTASVVCLLNNFYPREAKVQWKVDNALQSGNSQESVTEQDSKDSTYSLSSTLTLSKADYEKHKVYACEVTHQGLSSPVTKSFNRGEC |
